Drawing on PubChem BioAssay (NCI), this text covers TGI and GI50 for 30 compounds.

Each structure is given as a SMILES string. Several values for one entry are separate records, joined by “and”; a condition that tells them apart may be missing. Equal values may be shown once.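 Dose response: 5 concentrations. Exposure: 48 h. Format: 96-well plates. Endpoint: linear interpolation; highest concentration if not reached. GI50: concentration for 50% inhibition of growth. The concentration for full growth arrest is given as TGI.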

The subject of the experiment is NCI-H322M lung. Description: inhibition of tumour cell growth, NCI panel, 48 h.
Turning to `COc1ccc([N-]/C(=N\n2c(=O)c(C)nn(C)c2=S)N(c2ccc(OC)cc2)c2nn3c(=O)c(C)n[n+](C)c3s2)cc1`, the TGI was > 100 µM.

`CC1OC(OC2C(O)COC(OC3C(C)OC(OC4C(OC(=O)[C@]56CCC(C)(C)C[C@@H]5C5=CCC7[C@@]8(C)C[C@H](O)[C@H](OC9OC(CO)C(O)C(OC%10OC(CO)C(O)C(O)C%10O)C9O)[C@@](C)(CO)[C@@H]8CC[C@@]7(C)[C@]5(C)CC6)OCC(O)C4O)C(O)C3OC3OCC(O)C(O)C3O)C2O)C(O)C(O)C1O` (some centres not stated) displayed a TGI of 15.7 µM.

For `OC(COc1cccc2ccccc12)CN1CCN(c2ccccc2)CC1` (configuration not stated), the GI50 was 14.5 µM and the TGI was found to be 28.9 µM.

Turning to `COc1cc(C(N)=O)cc(NC(=O)/C=C/c2ccccc2)c1OC`, the TGI is > 100 µM.

For the compound `C=C(CS(=O)(=O)c1ccccc1)[P+](c1ccccc1)(c1ccccc1)c1ccccc1`, the TGI was > 100 µM.

In the case of `O=C1CN2C(Cl)(Cl)C2(c2ccccc2)c2cc(Cl)ccc2N1CC(F)(F)F` (configuration not stated), the TGI was 92 µM.

For `C#COc1cccc(Nc2ncnc3ncc(NC(=O)CCl)cc23)c1`, the GI50 is > 62.5 µM and the TGI was > 62.5 µM.

On to `N#CC(C#N)=CSc1ccccc1`, for which the TGI is > 100 µM.

Take `O=c1[nH]c(SCc2c(Cl)c(Cl)c(Cl)c(Cl)c2Cl)nc(=S)[nH]1`: the TGI is > 100 µM.

`CC[C@@H](C(=O)[C@@H](C)[C@@H](O)[C@H](C)CCc1ccc(C)c(O)c1C(=O)O)[C@H]1O[C@](CC)([C@H]2CC[C@](O)(CC)[C@H](C)O2)C[C@@H]1C` yielded a TGI of 9.13 µM.

On to `C[C@H]1CC(=O)C2=CCCC3(SCCCS3)[C@@H]2[C@H]1CO`, for which the TGI is > 100 µM.

For the compound `CC1=C[C@]2(CC(C)C3C(CC4(C)C5CCC6C(C)(C)C(=O)CC[C@@]67C[C@@]57CC[C@]34C)O2)OC1=O` (some centres not stated), the TGI is > 100 µM.

The compound `CC(C)=CCc1c(C)cc2cc3c(c(O)c2c1O)C(O)=CC(=O)C3(CC=C(C)C)C/C=C(\C)CO` (configuration not stated) gave a TGI of 69.6 µM.

For `OCC1OC(n2nc(-c3ccccc3)nc2-c2cnccn2)C(O)C1O` (configuration not stated), the TGI is > 100 µM.

As for `COC(=O)C1CCC(Nc2cccc(C(F)(F)F)c2)=N1` (configuration not stated), the TGI was > 100 µM.

In the case of `CC[C@H](C)n1cc(C)c2c(C(=O)NCc3c(C)cc(C)[nH]c3=O)cc(-c3ccc(N4CCNCC4)nc3)cc21`, the GI50 is 15.7 µM; the TGI is 29.1 µM and 30 µM.

Regarding `[C-]#[O+].[Cl][Sn]([Cl])[Cl].[Cl][Sn]([Cl])[Cl].[Pt].c1ccncc1`, the TGI is > 100 µM.

Compound `[N-]=[N+]=Nc1c([N+](=O)[O-])c(Cl)nc2ccccc12` registered a TGI of 23.8 µM.

`CC1(C)C[C@H]2C=C(C=O)[C@]34C[C@]3(C(=O)OC4O)[C@H]2C1` (some centres not stated) showed a TGI of 50.6 µM.

Turning to `COC(=NCCC1=CCCCC1)OC`, the TGI was > 100 µM.

Consider `COc1cc([C@@H]2c3cc4c(cc3[C@H](O)[C@H]3COC(=O)[C@H]23)OCO4)cc(OC)c1OC`, for which the TGI was 50 µM and > 100 µM.

On to `C=C(C)[C@@H]1CCC2=C[C@@H](OC2=O)[C@@H](C(=C)C)C(=O)/C=C(/C)C(=O)C1`, for which the GI50 is 27.6 µM and the TGI was 83.7 µM.

In the case of `COc1ccc2c(=O)c3cc([N+](=O)[O-])ccc3n(C)c2c1`, the TGI is > 100 µM.

With `O=c1c2ccccc2c(=O)c2c1cc(Cl)c1[nH]c3c([nH]c12)c(Cl)cc1c(=O)c2ccccc2c(=O)c13`, the TGI was > 100 µM.

For `CN(C)CCN=Cc1c2ccccc2c(=O)n2c1oc1ccccc12`, the GI50 was 5.27 µM and the TGI came to 17.1 µM.

With `O=C(NNC(=O)c1ccncc1)c1ccncc1`, the TGI is > 100 µM.

Consider `CC1=C([Se]CC(OC(=O)[C@@H](CO)NC(=O)OC(C)(C)C)C(=O)NC(C)(C)C)C(=O)c2ccccc2C1=O` (some centres not stated), for which the GI50 was 0.447 µM and the TGI was determined as 3.75 µM.

Consider `CCN(CC)C(=S)SC1CCOP(=O)(N(CCCl)CCCl)N1C` (configuration not stated), for which the TGI is > 100 µM.

For `O=C(Nc1ccc(Cl)cc1)/C(Cc1cccc[n+]1[O-])=N\Nc1ccc([N+](=O)[O-])cc1[N+](=O)[O-]`, the TGI was > 100 µM.

Consider `CCOC(=O)c1cc(C(=O)c2cc(OC)cc(OC)c2)n2ncc3ccccc3c12`, for which the GI50 is 2.24 µM and the TGI is > 100 µM.
